Data taken from the supplement of paper PMC11417369.
This is one part of the list.

tested on: PfSIP2 AP2 domain 1 (GST-tagged); experiment: gcPBM binding intensity (ln(normalized median fluorescence intensity)); higher = stronger DNA binding
Outline: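 After 1 h on an Agilent 4 × 180k array of primer-extended double-stranded 36-bp intergenic genomic probes and negative controls, bound GST-tagged P. falciparum DNA-binding domains were detected with Alexa488 anti-GST antibody and scanned at 488 nm. The domains had been expressed in E. coli, and binding took place in 1× PBS with 1% milk, 0.2 mg/ml BSA, 0.5% salmon testes DNA and 0.03% Triton X-100. Binding intensity is the highest Masliner-normalised natural-log median intensity across replicate spots of either probe orientation.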

| Sequence | gcPBM binding intensity (ln) |
| --- | --- |
| TATAATATTATATATAAACACACATACACATGTAAA [CACACA_site8631] | 7.04 |
| GTTATATTTTTTTATACACACTGGAATATATAAATA [CACACA_site4282] | 7.18 |
| ATAATTATATATTTATGTACGCATAAATATTTATAT [XGTACX_site5765] | 7.79 |
| ACCCAATTTTAAAATGAACACACATGTTTTTCTTAC [CACACA_site8246] | 7.04 |
| TATTTATTGTGATACTACTATTATTTTATGATTAAA [CACACA_negctrl_site284] | 6.93 |
| TTATATTATTTTTAATGTACTTTTTATGAATACAAA [XGTACX_site689] | 7.12 |
| TATATATAACTTTATTGTACAAAATATTATGTATTC [XGTACX_site981] | 7.03 |
| TTGTTTTATTATTCGATGCACTACAGAAATATATTC | 8.81 |
| TATACAACTTTATGAAGTACAAAAAGTTCTATATAT [XGTACX_site3866] | 6.99 |
| AACTATATCATTTATTTTATTTTTTAAATACATTTA [CACACA_negctrl_site183] | 6.91 |
| TAAGTATACTCATACACACACACACTAGAAAAAAAA [CACACA_site4397] | 7.08 |
| AGAGATACATAAAAAAGTACATATAAAATTTAGGAA [XGTACX_site7201] | 6.89 |
| TATTTATTTATATACACACACTTGTATAAAAAATGT [CACACA_site7048] | 7.04 |
| ATAATATGAAACTAAGGTACACATATATTAACAGAG [XGTACX_site3842] | 7.46 |
| TACAAATTAATATGTACACACAAATATATATATATA [CACACA_site1977] | 9.27 |
| TGCGACCATAATAAAGCACACAATGAAAAATATATA [CACACA_site256] | 6.96 |
| TGTGCTCAAAATTATGCACACACCTAAAATTAATTT [CACACA_site8950] | 7.77 |
| TATACATATTTTATAGCACACAAATAATAATATGTA [CACACA_site8129] | 6.93 |
| CCAACTATATTATGAAGTACATATATATTATATATA [XGTACX_site5767] | 7.19 |
| AAACCTACATAACATACACACGCATATATATAATTT [CACACA_site8923] | 7.24 |
| TTTTTTTTTTTTTATTGTACATGCAAAAAATTCCAC [XGTACX_site2371] | 7.55 |
| TTGGGTATTTTGTGCGCACACACATGCAAAAAGAAA [CACACA_site8299] | 9.26 |
| GTAAGTATATATAAATGTACTTATGAGGTCAAATTA [XGTACX_site3392] | 7.05 |

| Sequence | gcPBM binding intensity (ln) |
| --- | --- |
| ATATATATATATTGTAGTACTTATTAAATTATTTAT [XGTACX_site6235] | 8.84 |
| TCTGTATTTCCTTATGCATGCATTAGCAAGATAATA [TGCATGCA_site483] | 7.3 |
| ATATATAATCATATGTGTACATATATATTAATTTAA [XGTACX_site2839] | 7.07 |
| AATTCAAAATAAAAATGTACATATATCAGAATATGG [XGTACX_site42] | 6.98 |
| ACTTGTAAGAAACACACACACACACCGATATATATA [CACACA_site4594] | 7.38 |
| ATTATTTTTTTTCTTATACACACCATGCATCAAACT [CACACA_site2128] | 7.37 |
| AAAAATAAGAAAAAGTGTACTTTATTATGTATATAT [XGTACX_site2305] | 7.11 |
| AAAAAAAAAAAAAAAACACACATTTAATGAACTTAT [CACACA_site1276] | 7.58 |
| ATGAGAAAATATATTATTTTATATGAACAAGTTTAT [XGTACX_negctrl_site372] | 6.88 |
| AATAATGTATGAAATAAACACACAAGTAAGTACATA [CACACA_site8776] | 7.13 |
| ATAATTTTAAATAAATGTACATATAGATGTGTGTAA [XGTACX_site3958] | 7.62 |
| AAATGTTATATATAATGTACTTGTAAGAACGTTCCT [XGTACX_site2840] | 6.91 |
| AAAATTATATATTATAGTACATAAAATATTGATAAA [XGTACX_site8988] | 6.9 |
| AAGATACACTTAATCGCACACGAAATTATATATTTA [CACACA_site3063] | 6.92 |
| TTTTTTTTTTATGTTATTAAAAAAAAAAAAAATTAA [CACACA_negctrl_site222] | 6.79 |
| TATAACATTGTATGAATGCACTTTTATCTATTTTAA [GTGCAC_site9903] | 7.76 |
| ATATATATATATATATGTACATATGTATGTGTTTGT [XGTACX_site397] | 9.33 |
| TATACTCATTTTTATACACACTTGTTTTATAAAACG [CACACA_site4561] | 7.09 |
| AAATTTATTATGAACATACACACAAAAAAAAAAAGT [CACACA_site2053] | 7.59 |
| CTATATGTATAAAGTTGTACAGTTTTTCAAAGTTAA [XGTACX_site6652] | 7.07 |
| TATATATTTTATTATTGTACGAATTATTTATTTTAC [XGTACX_site8105] | 6.92 |
| TACATCATCTATAAGGTGCATTTTAGTTCTATTAAA | 10.8 |
| TTTTTTCTAATATCTTTGCCTTTTTCTTTATTTATT [CACACA_negctrl_site1053] | 6.6 |

| Sequence | gcPBM binding intensity (ln) |
| --- | --- |
| TATTGAAACCCACACGAACACACGTATTTCATAAAC [CACACA_site251] | 6.95 |
| TATAAAAAGCATAACACACACATGTCAATATAAATA [CACACA_site6648] | 6.91 |
| ATGGACATTTTATAAATCACAATGGATATTTTATAA [CACACA_negctrl_site1830] | 6.83 |
| TTTTTTTTTTTTTTGTGTACATATAATGCACATTAT [XGTACX_site6505] | 8.07 |
| TACTTTTATATAGAAAGTACATACAATTCATAGAAT [XGTACX_site2182] | 6.98 |
| ATAATTATATATATATGTACATATTATATATATATA [XGTACX_site4526] | 8.55 |
| CATAAATACATACATACACACATATTTATATTTATA [CACACA_site7071] | 7.15 |
| ATATACATATATATATGTACTGAAAAGAAAAGAATT [XGTACX_site150] | 7.08 |
| TGTTTTTAAATTTAAATCAAAAAATAAAATAAAATA [GTGCAC_negctrl_site355] | 7.02 |
| AAGATAACAAGTAATCAATCTAATTATTAATTATAT [CACACA_negctrl_site1713] | 6.71 |
| AAAAGAAAAATGTCATATGATATCATATATTTTATA [GTGCAC_negctrl_site185] | 6.9 |
| AAAAATATGTGATAATGTACTTTTCATTTTTATTTT [XGTACX_site8544] | 6.76 |
| AATATAATATAATGCACACATAAACAAAAAAAAAAT [CACACA_site1304] | 7.53 |
| TTCATTTGAAAACTGTGTACTTAAAAATATACATAT [XGTACX_site176] | 7.04 |
| ATATATTTAAATAAATGTACAAATCATAAATTCAAG [XGTACX_site1417] | 6.98 |
| TACATATATATAAATACACACACACCCACCTTATAA [CACACA_site9346] | 7.16 |
| TTTTTATTTTATAATATATTCCTTTTCCTTTCTTTC [CACACA_negctrl_site245] | 6.64 |
| TTATTAGAAAAATGCACACCAAAAAAAAAAAAAAAA [CACACA_site2522] | 7.47 |
| ATACATATACACATATGTACATATGAAAAGAAAAAT [XGTACX_site6445] | 7.35 |
| TATATATATTGTGTATGTACATATATATAAATATTG [XGTACX_site433] | 7.68 |
| GAAAAGAAAAATAAACGTACATAAATATTAACATTA [XGTACX_site8213] | 6.73 |
| CAAATAAAAATAAGGAGTACAATTAAAAAAGGAAGG [XGTACX_site4366] | 7.95 |
| AAAATAAAAAAGTGTACACATATTAAAATGTATTTA [CACACA_site4424] | 6.92 |

| Sequence | gcPBM binding intensity (ln) |
| --- | --- |
| TAAAATTATATAAAGGAACACACATTTTATTTTATT [CACACA_site8423] | 6.82 |
| AATATATTTTAATATACACACATATCTGCTCTTTAA [CACACA_site6130] | 6.76 |
| TCATTGTTAAGCTGAAGTACTTATAATTACATCGAG [XGTACX_site6340] | 7.04 |
| TATTAGCATGTTATTACACACAATATAAAATATATA [CACACA_site1401] | 7.02 |
| TGTCAATCATATAAATGTACATTTTAAATGAGGTGT [XGTACX_site7391] | 7.36 |
| AATTAAATTACTTATACACACATAAAATGTCTGTAT [CACACA_site997] | 6.98 |
| AAATTATGAACATATTGTACATATATATATATATAT [XGTACX_site8269] | 9.36 |
| CATGTATGTACCATGGTGCAACAATATTTTTAACAA [GTGCAC_site9597] | 10.6 |
| ATTATATAAATTATATGTACGTATTTTTTTTTTTTT [XGTACX_site1908] | 7.19 |
| TTTATTTCTATATTTACATGCAAAGGGTTAGTTATA [TGCATGCA_site983] | 7.11 |
| GATCTTTTTTTTCTTACTTTACAATTTTTTTTTTAC [XGTACX_negctrl_site101] | 7.15 |
| TTTTTTTTTTTCATGTGTACATATATTTTCACTTTA [XGTACX_site4475] | 7.1 |
| AAGAAAAAGAATAGACGGACAACTAATATAAAATAT [XGTACX_site7905] | 6.98 |
| GTTTTACACAGACATGCATGTGAAAATTTGATGGTA [TGCATGCA_site308] | 6.96 |
| TATCATCATGTATGTACACACATACCTATATTATGT [CACACA_site6768] | 7.18 |
| TGTATAAAACATGGGTGTACTGAACTCAATCATATA [XGTACX_site1215] | 6.97 |
| AAAAGTAACAAAGCTACACACATTTAAATAAACATA [CACACA_site1421] | 6.94 |
| AAAATAACAAAATAAAGTACTTTTAAAAGATATAAT [XGTACX_site7632] | 6.9 |
| GATTTTCTAATTTCTACACACATATAAGAATATTCA [CACACA_site7340] | 7.08 |
| TTTTTAATTCAAACAATAATATGTTATATTTCAAAT [TGCATGCA_negctrl_site27] | 6.63 |
